# ± gives the uncertainty stated by the source. The sequences are guide strands of siRNAs; only the seed at positions 2 to 7 varies.
# How the values were obtained:
# 3LL = test: cell viability relative to siNT1 control; higher = less toxic; conditions: concentration: 10 nM; 96 h; Mus musculus;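 further: Luminescence-based viability of cells reverse transfected in 384-well plates with lipid-complexed siRNAs built on a non-toxic 19mer backbone whose passenger strand carries 2′-O-methyl groups at positions 1 and 2, triplicates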
# H460 = test: cell viability relative to lipid-only control; HeyA8 human ovarian and H460 human lung cancer; M565 mouse liver and 3LL mouse lung cancer; siNT1 is a non-toxic control siRNA; higher = less toxic; conditions: concentration: 10 nM; 96 h; Homo sapiens
# HeyA8 = test: as above; conditions: concentration: 10 nM; 96 h; Homo sapiens
# M565 = test: as above; conditions: concentration: 10 nM; 96 h; Mus musculus
# 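Wherever cell viability relative to lipid-only control is given: reverse lipid transfection in 384-well plates, in triplicate, of duplexes on a non-toxic 19mer backbone with passenger strand 2′-O-methylated at positions 1 and 2, luminescence viability read-out.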
Sequence,cell viability (3LL) [%],cell viability (H460) [%],cell viability (HeyA8) [%],cell viability (M565) [%]
UGCUAAUACAUGUAAACCAAA,27.7 ± 4.8,12.3 ± 2.1,4.04 ± 0.18,57.1 ± 3
UAGGCUCACAUGUAAACCAAA,8.34 ± 3.5,34.1 ± 8.5,4.88 ± 0.93,7.31 ± 2.4
UGGAUUUACAUGUAAACCAAA,104 ± 15,71.8 ± 13,86.6 ± 9.3,49.4 ± 8.1
UCUAUACACAUGUAAACCAAA,94.4 ± 18,65.1 ± 14,91.5 ± 2.5,55.2 ± 11
UAUCUGGACAUGUAAACCAAA,35.5 ± 3.2,30 ± 3,25.4 ± 3.3,37.1 ± 5.9
UACGGCUACAUGUAAACCAAA,30.6 ± 9.4,52.6 ± 5.8,38.7 ± 3,42.9 ± 12
UGUGACAACAUGUAAACCAAA,57.1 ± 6.3,52.8 ± 3,72.1 ± 9.3,66.6 ± 14
UGUGCGAACAUGUAAACCAAA,77.8 ± 3.2,81.2 ± 18,108 ± 9.2,73.5 ± 8.2
UAGCAGCACAUGUAAACCAAA,29.9 ± 3.6,27.7 ± 0.82,36.5 ± 5.5,22.2 ± 7.7
UGACGUAACAUGUAAACCAAA,89.1 ± 4.4,66.4 ± 4,102 ± 4.5,55.9 ± 11
UAGCAAAACAUGUAAACCAAA,100 ± 16,85.4 ± 24,83.8 ± 1.9,69.9 ± 8.7
UAGCCACACAUGUAAACCAAA,44.1 ± 3.5,60.9 ± 6.6,68.2 ± 5.3,22 ± 2.8
UACCUGCACAUGUAAACCAAA,12.9 ± 6.7,25.2 ± 6.3,18 ± 2.1,14.9 ± 7.6
UGAUGGUACAUGUAAACCAAA,33.8 ± 12,58.7 ± 3.5,62.1 ± 8.9,29.6 ± 9.3
UUUGUCGACAUGUAAACCAAA,103 ± 11,69.3 ± 6.8,104 ± 4.7,65.4 ± 13
UAACACGACAUGUAAACCAAA,95.9 ± 9.1,48.9 ± 10,92.8 ± 8.1,73.9 ± 9.5
UCGGAUGACAUGUAAACCAAA,93.4 ± 21,67.5 ± 11,84.7 ± 11,83.6 ± 13
UCUAUCCACAUGUAAACCAAA,79.3 ± 14,54.5 ± 5,58.5 ± 2.1,60 ± 13
UCCUCGAACAUGUAAACCAAA,92.7 ± 21,63.7 ± 7.7,88.8 ± 6.9,65 ± 3.1
UUAAGUGACAUGUAAACCAAA,85.6 ± 5.7,61.2 ± 8.6,55.8 ± 3.6,91.1 ± 17
UCUUCCCACAUGUAAACCAAA,89.9 ± 15,52.2 ± 2.4,42.6 ± 4,44.7 ± 8.9
UAACGCGACAUGUAAACCAAA,99.5 ± 10,82.8 ± 19,101 ± 18,86.2 ± 6.5
UUCCCAGACAUGUAAACCAAA,76.7 ± 16,84.4 ± 4.5,74.1 ± 9.1,38.3 ± 10
UACCGUCACAUGUAAACCAAA,25.6 ± 6.2,59.9 ± 2.5,62.5 ± 1.3,8.65 ± 2.4
UGGCUUAACAUGUAAACCAAA,95 ± 12,55.6 ± 7.8,40.7 ± 6.1,38.5 ± 6.3
UAUUAUCACAUGUAAACCAAA,90 ± 15,108 ± 7.4,78.9 ± 9.7,102 ± 2
UUAGUUAACAUGUAAACCAAA,97.8 ± 10,68.3 ± 16,91.6 ± 4.6,120 ± 15
UUAGUUCACAUGUAAACCAAA,86.8 ± 12,38.1 ± 1.5,48.8 ± 7.8,67.2 ± 11
UGUCCUCACAUGUAAACCAAA,7.57 ± 1.6,5.74 ± 0.62,5.98 ± 0.35,13.1 ± 1.1

# From the supplement of paper PMC6206098
